# Results as given in ChEMBL document CHEMBL1201862, “PubChem BioAssay data set” (2004).
# Tested on: NCI-H322M
# Assay: NCI tumour cell line growth inhibition, 48 h
row,SMILES,GI50
1,CC(CC[C@@]1(C)C(=O)CCC2O[C@]21C)[C@H]1C[C@@H](c2ccoc2)OC1=O (stereo not given in full),inactive: > 100 µM
2,Cc1c2cc[n+](C)cc2c(C)c2c1[nH]c1ccccc12,active: 1.06 µM
3,CCOC(=O)/C(C#N)=C/c1ccc2c(c1)CC1(C2)Cc2cc(CC)c(C(C)O)cc2C1 (stereo not given),inactive: 32.3 µM
4,COc1ccc(-c2cc(O)c3cc4c(cc3n2)OCO4)cc1OC,inactive: > 100 µM
5,CC(C)N1CN(c2ccccc2)C2(CCN(CCCC(=O)c3ccc(F)cc3)CC2)C1=O,inactive: 4.68 µM
6,Cc1ccc(/C=C/C(=O)c2sc(-c3nc(C)c(C(=O)/C=C/c4ccc(C)cc4)s3)nc2C)cc1,inactive: > 100 µM
7,CCOc1ccc(N2C(=O)/C(=C/c3ccc(N(CCC#N)CCC#N)cc3)N=C2c2cc([N+](=O)[O-])ccc2Cl)cc1,inactive: 83.9 µM
8,OC1CC(O)c2c(Cl)sc(Cl)c21 (stereo not given),inactive: 30.4 µM
9,O=C(/C=C/c1ccccc1)C[C@@H](O)C[C@@H]1CC=CC(=O)O1,inactive: 13.6 µM
10,COc1ccc(C(=O)Cn2c(C(C)=O)nc3ccccc32)cc1,inactive: 26.5 µM
11,Nc1ncnc2c1ncn2[C@H]1CC[C@@H](NO)C1,inactive: > 100 µM
12,Cn1c(=O)c2[nH]c(C3CC(=O)CC(c4nc5c([nH]4)c(=O)n(C)c(=O)n5C)N3)nc2n(C)c1=O (stereo not given),inactive: 97.5 µM
13,Cc1cc(Cl)ccc1NC(=O)C1C(=O)N(c2ccc(Cl)cc2C)C(=O)/C1=N\NC(N)=S (stereo not given),inactive: 36.6 µM
14,CC1CC/C(=C\c2ccc(F)cc2)C(=O)/C1=C/c1ccc(F)cc1 (stereo not given),inactive: 7.38 µM
15,O=C1/C(=C/c2ccc(O)c([N+](=O)[O-])c2)CCC/C1=C\c1ccc(O)c([N+](=O)[O-])c1,inactive: 15.3 µM
16,O=C(CCN1CCCC1)CC(c1ccccc1)c1c(O)c2ccccc2oc1=O (stereo not given),inactive: > 100 µM
17,COc1cc(/C=C2\C(=O)N(c3ccc(Cl)cc3)C(c3ccccc3)S2(=O)=O)cc(OC)c1OC (stereo not given),inactive: 61.1 µM
18,Nc1ncnc2c1ncn2[C@@H]1O[C@H](C(=O)O)[C@@H](O)[C@H]1O [5'-CARBOXY ADENOSINE],inactive: > 100 µM
19,CCN(CC)CCN(/C(=N/c1ccccc1)N1CCCCC1)c1ccccc1,inactive: 12 µM
20,C[C@]12CC(C=O)C(=O)C(O)=C1CC[C@@H]1C2CC[C@@]2(C)C1CC[C@]2(C)O (stereo not given in full),inactive: 19.1 µM
21,COc1ccc2c3c1OC1C(OC)(OC)C=C[C@@]4(Br)[C@@H](C2)N(CC2CC2)CC[C@]314 (stereo not given in full),inactive: 77.6 µM
22,COc1cc(C2C(C(=O)Nc3ccc([N+](=O)[O-])cc3)=C(C)NC(C)=C2C(=O)Nc2ccc([N+](=O)[O-])cc2)ccc1O,inactive: 18.9 µM
23,C/C(=N\NC(N)=S)c1ccc(C2CCCCC2)cc1,inactive: 25.6 µM

row,SMILES,GI50
1,CCCC1NC(C#N)(C#N)C(CCC)NC1(C#N)C#N (stereo not given),inactive: 37.6 µM
2,C=C1C(=O)OC2C1CC1OC2C(C)CCC/C(C)=C\CCC1(C)O (stereo not given),inactive: 37.8 µM
3,CCOc1ccc2c(c1)c(=O)c1c(NCCN(CC)CC)ccc3nnn2c31,inactive: 14.4 µM
4,CCOC(=O)c1csc(-c2cn(C)c3c2C(=O)C(OC)=CC3=O)n1,inactive: 29 µM
5,COc1cc2cc(C(=O)N3C[C@H](CCl)c4c3cc(O)c3ccccc43)[nH]c2c(OC)c1OC,active: 0.192 µM
6,CCOC(=O)CC[C@H](NC(=O)N[C@H](C)c1ccccc1)C(=O)OCC,inactive: 83.4 µM
7,Oc1ccc(/C=N/NC(=S)Nc2cccnc2)nc1,inactive: 5.12 µM
8,Cc1ccc([N+](=O)[O-])cc1NC(=O)C(=O)Cc1occc(=O)c1O,inactive: > 100 µM
9,CC[C@H](C)[C@H]1NC(=O)[C@@H](N)[C@@H](C)OC(=O)[C@H](Cc2ccc(OC)cc2)N(C)C(=O)[C@@H]2CCCN2C(=O)[C@H](CC(C)C)NC(=O)[C@@H](C)C(=O)[C@H](C(C)C)OC(=O)C[C@@H]1O (H-T[X32]LP[NMeY](Me); ester 1-C),inactive: 22.7 µM
10,CC(C)=CCC[C@@H](C)[C@H]1CC[C@@]2(C)[C@@H]3CC[C@H]4C(C)(C)[C@@H](O)CC[C@@]45C[C@@]35CC[C@]12C [CYCLOARTENOL],inactive: 48.2 µM
11,CN(C)CCNC(=O)c1cc(Cl)cc2ccc(-c3ccccc3)nc12,inactive: 3.67 µM
12,CC(=O)Nc1ccc(/C=N\N2C(=O)c3ccccc3C2=O)cc1,inactive: > 100 µM
13,COC1=CC(=O)C2C(C1=O)[C@@H]1c3ccccc3OC[C@H]21 (stereo not given in full),inactive: > 100 µM
14,CC1CC(C)CC(NC2=NCCO2)C1 (stereo not given),inactive: > 100 µM
15,CC1(C)C[C@H]2C3=CC[C@@H]4[C@@]5(C)CC[C@H](O)C(C)(C)[C@@H]5CC[C@@]4(C)[C@]3(C)C[C@@H](O)[C@@]23C[C@@H]1OC3=O,inactive: > 100 µM
16,COc1ccc(/C=C2\CCC(C)(CN(C)C)C2=O)cc1Br (stereo not given),inactive: 30.1 µM
17,COc1ccc(C(=O)C(c2ccc(OC)cc2)C2OC(=O)C(Cl)=C2Cl)cc1 (stereo not given),inactive: > 100 µM
18,Cc1cccc(C(C)C)c1N1C(=O)C(=O)C(c2nc3ccccc3o2)C(=O)C1=O,inactive: > 100 µM
19,CC1(C)C(=O)N(CCCCCCN2C(=O)C(C)(C)c3ccccc32)c2ccccc21,inactive: > 100 µM
20,CC(C)=Cc1cc(C(=O)Nc2ccc(Cl)c(Cl)c2)nc(N)n1,inactive: > 100 µM
21,Nc1nc(N)c2ncn(CCCC(c3ccccc3)P(=O)(O)O)c2n1 (stereo not given),inactive: > 100 µM
22,Fc1ccc(/C=C2\COCC3=C2NC(=S)NC3c2ccc(F)cc2)cc1 (stereo not given),inactive: 23.2 µM
23,O=c1c2ccccc2nc(N/N=C/c2ccc(Cl)cc2)n1-c1ccccc1,inactive: > 100 µM

row,SMILES,GI50
1,C#CCN1C(=O)CN2C(Cl)(Cl)C2(c2ccccc2)c2cc(Cl)ccc21 (stereo not given),inactive: 93.5 µM
2,NC(CCCCP(=O)(O)O)C(=O)O (stereo not given),inactive: > 100 µM
3,N#CC1(C#N)C(c2ccccc2)C=CC12OCCCO2 (stereo not given),inactive: 48 µM
4,Cc1cc(C)nc(NS(=O)(=O)c2ccc(Nc3c4ccc(Cl)cc4nc4c(C(=O)Nc5ccc(S(=O)(=O)N=C(N)N)cc5)cccc34)cc2)n1,inactive: 37.8 µM
5,CC(CO)(Nc1ccc([N+](=O)[O-])cc1[N+](=O)[O-])C(=O)O (stereo not given),inactive: > 100 µM
6,CCc1cccc(C(C)C)c1NC(=O)C(=O)C(C(=O)C(=O)OC)c1nc2ccccc2nc1O (stereo not given),inactive: > 100 µM
7,Nc1n/c(=N\c2ccccc2)ss1,inactive: > 100 µM
8,COC(=O)c1cc(CC2Cc3cc4c(cc3C2=O)CCC4)cc2c1CCC2 (stereo not given),inactive: 77.6 µM
9,CC(=O)OCCCCn1cnc2nc(Nc3ccccc3)nc(Cl)c21,inactive: > 100 µM
10,Clc1ccc(-c2cn3c(nc4ccccc43)c(/C=C/c3cccs3)n2)cc1,inactive: > 100 µM
11,O=C1/C(=C/c2ccc(F)cc2)CNC/C1=C\c1ccc(F)cc1,inactive: 3.88 µM
12,Oc1ccccc1/C=N/Nc1nnc2c3ccccc3c3ccccc3c2n1,inactive: > 100 µM
13,O=C(O)c1ccc(Cc2ccccc2C(=O)O)cc1,inactive: > 100 µM
14,Nc1nc(N)c2ncn(-c3ccc(Cl)c(Cl)c3)c2n1,inactive: 29.6 µM
15,CC(C1CCCC1=O)C1CCCC1=O (stereo not given),inactive: 81.1 µM
16,CC(C)(C)C1=NC(=S)SC2=NC(=O)C3(NN21)c1ccccc1-c1ccccc13,inactive: > 10 µM
17,Nc1cc(OCC2CCCCC2)nc(N)n1,inactive: > 100 µM
18,CC1(C)O[C@H]([C@H](O)c2nnc3ccc(Cl)nn23)[C@@H]([C@H]2COC(C)(C)O2)O1,inactive: > 100 µM
19,O=C1CCCCCCCCCCC1CCCCCBr (stereo not given),inactive: 39.7 µM
20,O=C(C/N=C(\CN(c1ccccc1)c1ccccc1)Oc1c([N+](=O)[O-])cc([N+](=O)[O-])cc1[N+](=O)[O-])N1CCNCC1,inactive: > 100 µM
21,Cc1c(-c2ccccc2)c(C#N)c2nnn(-c3ccc(Cl)cc3)c(=O)n12,inactive: > 100 µM
22,CN(CCC#N)c1ccc(/C=C2\SC(=S)NC2=O)cc1,inactive: 44.2 µM
23,CCOC(=O)c1c(SCC#N)n(-c2ccccc2)c(=S)n(-c2ccccc2)c1=O,inactive: > 100 µM

row,SMILES,GI50
1,CC1(C)C(CCO)CC1n1cc(I)c(=O)[nH]c1=O (stereo not given),inactive: > 100 µM
2,COc1ccc(C2=NNC(=O)c3ccccc3N2c2nc(-c3cccs3)nc3cc(OC)c(OC)cc23)cc1,inactive: 8.09 µM
3,Cc1cc(C)c2c(=O)cc(-c3ccccc3)[nH]c2c1,inactive: 3.38 µM
4,CCOC(=O)CC(=O)NC1CC2CCC1(C)C2(C)C (stereo not given),inactive: > 100 µM
5,Nc1ccccc1/C=C\c1ccccc1,inactive: > 100 µM
6,COC1OC(Cn2c(C)nc(Br)c2Br)C(O)C(O)C1O (stereo not given),inactive: > 100 µM
7,COC(=O)CCC1CCc2c(OC)ccc(OC)c2C1=O (stereo not given),inactive: > 100 µM
8,COCCCNc1c2ccccc2nc2ccccc12,inactive: 5.19 µM
9,C[P+](c1ccccc1)(c1ccc(Cl)cc1)c1ccc(Cl)cc1,inactive: 23.1 µM
10,O=C(Nc1ccc(N=C=S)cc1Cl)c1cc(Br)cc(Br)c1O,inactive: 26.1 µM
11,CN1CCCC2[C@@H]3CCC4c5nonc5CC[C@]4(C)C3CC[C@@]21C (stereo not given in full),inactive: > 100 µM
12,COC1=C[C@]2(CCC(=O)O2)[C@@H]2Cc3ccccc3[C@H](O)[C@@H]2C1=O,inactive: > 100 µM
13,COc1cc(C2C(C(=O)O)=C(CO)Oc3cc4c(cc32)OCO4)cc(OC)c1OC (stereo not given),inactive: > 100 µM
14,COc1c(C(=O)/C(=N/Nc2cccc(Cl)c2)C(C)=O)c(O)c(OC)c2occc12,inactive: > 100 µM
15,COc1ccc(-n2c(N)c(C#N)c(C#N)c2-c2ccccc2)cc1,inactive: > 100 µM
16,O=C1C(C(c2ccccc2)N2CCOCC2)=C(O)C(c2ccccc2)N1c1ccccc1 (stereo not given),inactive: > 10 µM
17,CC1(O)Oc2ccc3ccccc3c2C=C1C(N)=O (stereo not given),inactive: > 100 µM
18,CCC/C(Cl)=N/OC(NC(=O)OCC)(C(F)(F)F)C(F)(F)F,inactive: > 100 µM
19,CCCCCCCC[N+](C)(C)Cc1ccc(C[N+](C)(C)CCCCCCCC)cc1,inactive: 39 µM
20,C/C(CC(=O)Nc1ccccc1[N+](=O)[O-])=N\NC(N)=O,inactive: > 100 µM
21,Cc1ccc(C2(c3ccc(C)c(O)c3C)CCN(C)CC2)c(C)c1O,inactive: 66.7 µM

#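 Following 48 hours of exposure in 96-well plates, responses at five concentrations were used to interpolate endpoints linearly. The concentration for 50% growth inhibition is given as GI50.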 The source made the active and inactive calls. No stated cut-off is given here; in the data, active = GI50 up to about 1.1 µM and inactive = higher. Numbered stars: 1 amine (or outer) side, 2 acyl side, 3 side chain; on linkers, the order of the positions; unused ones are H or OH. Bridge positions count the residues as written; N and C are the ends. Square brackets hold non-standard residues; d marks the D form. Peptide text beside a SMILES is read from it. X32 = CC[C@H](C)[C@@H](N[*:1])[C@@H](O)CC(=O)O[C@H](C(=O)[C@H](C)C(=O)[*:2])C(C)C; NMeY = CN[C@@H](Cc1ccc(O)cc1)C(=O)O
